Measurements taken from PubChem BioAssay (NCATS).
Several values for one entry are separate records, joined by “and”; a condition that tells them apart may be missing. Identical values can stand only once. This is one part of the list. Further columns of the screen follow, without active or inactive calls. Compounds called inactive in the main read-out are mostly missing here. The note in brackets gives the kind of curve behind each potency; many fits are weak.

Test: qHTS Assay for Lipid Storage Modulators (AID 1519)
Details: Drosophila S3 cells, BODIPY lipid droplet/cell ratio, laser cytometry, cells loaded with oleic acid
Summary of the method: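 Cells seeded at 5,000 per well were treated with compounds over a concentration series and loaded with oleic acid (400 uM, as added). Lipid droplet fluorescence (488 nm excitation, 500-530 nm channel) was read by laser-scanning cytometry and normalized to 20 uM Triacsin C.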

[1] = measured here: cell count channel max response
[2] = measured here: cell number channel AC50
[3] = measured here: lipid (BODIPY) channel AC50
[4] = measured here: lipid channel max response
Tags tell the direction and shape of the fitted curve.

| Structure (SMILES) | max response [1] | AC50 [2] | AC50 [3] | max response [4] |
| --- | --- | --- | --- | --- |
| NN=C(N)N | 33.7% and 8.65% | 4.47 µM [falling, full curve, poor fit] | 4.47 µM [falling, full curve, poor fit] | 37% and 9.61% |
| CN(C)C(=O)Oc1ccc[n+](C)c1 | 37.3% and 56.2% | 28.2 µM [rising, single point] | 39.8 µM [rising, single point] | 62.2% and 56.5% |
| COc1ccc2[nH]cc(CCN(C)C)c2c1 | -3.03% | 7.94 µM [falling, full curve, poor fit] | 7.94 µM [falling, full curve, poor fit] | -1.31% |
| NC(=NCCc1ccc(I)cc1)SCCCc1cnc[nH]1 | 101% | 28.2 µM [rising, partial curve] | 28.2 µM [rising, partial curve] | 128% |
| Cn1c(=O)c2[nH]cnc2n(C)c1=O | -4.56% | 3.55 µM [falling, full curve, poor fit] | 3.55 µM [falling, full curve, poor fit] | -4.53% |
| O=P(O)(O)C(Cl)(Cl)P(=O)(O)O | 56.6% | 39.8 µM [rising, single point] | 39.8 µM [rising, single point] | 56.9% |
| CC(C)C[C@H]1C(=O)N2CCC[C@@H]2[C@]2(O)O[C@](NC(=O)[C@@H]3C=C4c5cccc6[nH]c(Br)c(c56)C[C@H]4N(C)C3)(C(C)C)C(=O)N12 | 67.5% | 7.08 µM [rising, full curve, poor fit] | 4.47 µM [rising, full curve, poor fit] | 55.5% |
| COc1cc2c(cc1OC)[C@@H]1C(=O)c3ccc(OC)c(CC=C(C)C)c3OC1CO2 (stereo partly drawn) | -30.1% | 11.2 µM [falling, partial curve] | 15.8 µM [falling, partial curve] | -84.7% |
| CCCN1CCC[C@H](c2cccc(O)c2)C1 | -35.9% | 7.08 µM [falling, full curve, poor fit] | 35.5 µM [falling, partial curve, poor fit] | -49% |
| NC[C@H](CP(=O)(O)O)c1ccc(Cl)cc1 | 33.5% | 14.1 µM [rising, full curve, poor fit] | 15.8 µM [rising, full curve, poor fit] | 38.6% |
| CN(C(=O)Cc1ccc(Cl)c(Cl)c1)[C@H](CN1CCCC1)c1cccc(N=C=S)c1 | 91.2% | 14.1 µM [rising, partial curve] | 14.1 µM [rising, partial curve] | 113% |
| COc1ccc2c(c1OC)C(=O)O[C@@H]2C1c2cc3c(cc2CCN1C)OCO3 (stereo partly drawn) | 100% | 1.58 µM [rising, full curve] | 1.41 µM [rising, full curve] | 131% |
| c1cc2c(cc1[C@H]1OC[C@@H]3[C@H]1CO[C@H]3c1ccc3c(c1)OCO3)OCO2 | 126% | 12.6 µM [rising, partial curve] | 12.6 µM [rising, partial curve] | 162% |
| Clc1ccc(C2=CCC[C@H]3CC[C@@H]2N3)cn1 | 42.7% | 3.55 µM [rising, full curve, poor fit] | 3.16 µM [rising, full curve, poor fit] | 51.8% |
| CC(C)C[C@H]1C(=O)N2CCCC2[C@]2(O)O[C@](NC(=O)[C@@H]3C=C4c5cccc6[nH]cc(c56)CC4N(C)C3)(C(C)C)C(=O)N12 (stereo partly drawn) | 83% | 7.94 µM [rising, full curve] | 8.91 µM [rising, full curve] | 112% |
| Cc1ccc(C[N+](C)(C)C)o1 | 8.11% | 22.4 µM [rising, single point] | 15.8 µM [rising, single point] | 17.4% |
| O=C(NC[C@H]1CCCCN1)c1cc(OCC(F)(F)F)ccc1OCC(F)(F)F | 54.8% | 31.6 µM [rising, partial curve, poor fit] | 31.6 µM [rising, partial curve, poor fit] | 73.6% |
| COC(=O)/C(C)=C\CC12OC(C)(C)C3CC(C=C4C(=O)c5c(OC)c6c(c(CC=C(C)C)c5OC431)OC(C)(CCC=C(C)C)C=C6)C2=O (stereo not drawn) | -48.2% | 11.2 µM [falling, partial curve] | 10 µM [falling, partial curve] | -113% |
| CC[C@]1(O)CC(O[C@@H]2CC(N(C)C)C(O)C(C)O2)c2c(cc3c(c2O)C(=O)c2c(O)cccc2C3=O)C1C(=O)OC (stereo partly drawn) | 32% | 39.8 µM [rising, single point] | 8.91 µM [falling, partial curve] | -92.5% |

| Structure (SMILES) | max response [1] | AC50 [2] | AC50 [3] | max response [4] |
| --- | --- | --- | --- | --- |
| CC(Cc1ccc(OCC(=O)O)cc1)NCC(O)c1cccc(Cl)c1 (stereo not drawn) | 55.5% | 39.8 µM [rising, single point] | 39.8 µM [rising, single point] | 55.5% |
| CCCCCC1C(=O)O[C@H](C)[C@@H](NC(=O)c2cccc(NC=O)c2O)C(=O)OC(C)C1OC(=O)CC(C)C (stereo partly drawn) | -38% | 0.398 µM [falling, full curve] | 0.141 µM [falling, full curve] | -106% |
| c1ccc(C2CC2)c(OCC2=NCCN2)c1 | 51.7% | 3.16 µM [falling, partial curve, poor fit] | 3.16 µM [falling, partial curve, poor fit] | 50% |
| O=C(CCCN1CCC2(CC1)C(=O)N(Cc1cccc(F)c1)CN2c1ccccc1)c1ccc(F)cc1 | 29.5% | 4.47 µM [rising, full curve, poor fit] | 4.47 µM [rising, full curve, poor fit] | -54.9% |
| C#CCN1C(C)=C(C(=O)CCO)[C@@H](c2cccc(-n3oo3)c2)C(C(=O)OC)=C1C | 99.5% | 1 µM [rising, full curve] | 1.12 µM [rising, full curve] | 150% |
| CCCCC/C=C\C/C=C\C/C=C\C/C=C\CCCC(=O)O | 51.2% | 31.6 µM [rising, partial curve, poor fit] | 11.2 µM [rising, single point] | 63% |
| CN1Cc2c(ccc3c2OCO3)C2C(O)Cc3cc4c(cc3C21)OCO4 (stereo not drawn) | 40.9% and 112% | 7.08 µM [rising, partial curve] and 2 µM [rising, full curve] | 5.62 µM [rising, full curve] and 1.58 µM [rising, full curve] | 57.2% and 146% |
| NO | 42.9% | 39.8 µM [rising, single point] | 39.8 µM [rising, single point] | 41.6% |
| COc1ccc2cc1Oc1ccc(cc1)C[C@H]1c3cc(c(OC)cc3CCN1C)Oc1c(OC)c(OC)cc3c1[C@H](C2)N(C)CC3 | 66.4% | 12.6 µM [rising, full curve] | 12.6 µM [rising, full curve] | 75.6% |
| COc1cc2c(cc1O)CC1c3c(cc(O)c(OC)c3-2)CCN1C (stereo not drawn) | 91.3% | 15.8 µM [rising, partial curve] | 25.1 µM [rising, partial curve] | 123% |
| CCCN1CCCC(c2cccc(O)c2)C1 (stereo not drawn) | -1.74% | 1.26 µM [falling, full curve, poor fit] | 1.41 µM [falling, full curve, poor fit] | -1.08% |
| Clc1ccccc1-c1cncnc1NCCc1cnc[nH]1 | 44.2% | 0.891 µM [rising, full curve, poor fit] | 1 µM [rising, full curve] | 56.8% |
| C[C@@]12CC[C@@H]3c4ccc(O)cc4C[C@H](CCCCCCCCCS(=O)CCCC(F)(F)C(F)(F)F)[C@H]3[C@@H]1CC[C@@H]2O (stereo partly drawn) | 80.2% | 7.94 µM [rising, partial curve] | 7.08 µM [rising, partial curve] | 98.9% |
| Cc1ccc2oc(-c3ccccc3)cc(=O)c2c1 | 134% | 2.24 µM [rising, full curve] | 2.24 µM [rising, full curve] | 173% |
| CC1=CC(=O)c2c(O)cccc2C1=O | -107% and 5.04% | 28.2 µM [falling, partial curve] and 14.1 µM [rising, partial curve, poor fit] | 8.91 µM [falling, partial curve] and 39.8 µM [falling, single point] | -97.7% and -60.5% |
| CC(=O)N1CCN(c2ccc(OC[C@@H]3CO[C@@](Cn4ccnc4)(c4ccc(Cl)cc4Cl)O3)cc2)CC1 | -35.5% | 7.94 µM [falling, single point] | 15.8 µM [falling, single point] | -39.6% |
| CCCCCCC(C)(C)c1ccc([C@@H]2C[C@H](O)CC[C@@H]2CCCO)c(O)c1 | 44.6% | 2.82 µM [rising, full curve] | 2.82 µM [rising, full curve] | 58.8% |
| COC1=C[C@H]2[C@H]3Cc4ccc(OC)c(O)c4[C@@]2(CCN3C)CC1=O | 42.6% | 39.8 µM [rising, single point] | 35.5 µM [rising, single point] | 43.6% |
